# Test results as given in paper PMC4242493.
# The list shows a part of the results. The list includes weakly bound sequences.
# Biological target: MaxL homodimer (UniProt P61244)
# Experiment: universal protein-binding microarray (PBM)
# Conditions: PBS-based mixture, 10 nM His-tagged protein dimer, 2% milk, 200 ng/uL BSA, 50 ng/uL salmon testes DNA, 0.02% TX-100; detection with Alexa 488 anti-His …; high values mean tight binding; most listed sequences are background and not binding sites; double strand, one strand shown
# UniProt P61244, sequence (P61244 whole entry): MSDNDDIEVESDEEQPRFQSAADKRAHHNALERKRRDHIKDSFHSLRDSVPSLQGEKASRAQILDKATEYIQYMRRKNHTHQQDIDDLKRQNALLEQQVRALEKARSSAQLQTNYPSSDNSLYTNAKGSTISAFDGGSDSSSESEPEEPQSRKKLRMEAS
row,Sequence,binding signal (normalized occupancy)
1,AGTGTGGC,0.0795
2,ACAGAAAC,0.0709
3,CTAGGTCC,0.0723
4,GGTGACCA,0.0763
5,TGATGAAA,0.0725
6,AATCTCTC,0.0762
7,ACAGTATC,0.0818
8,ATTTAAGG,0.0701
9,ACCATTAC,0.0833
10,CTTGACCC,0.0669
11,AACGCTCC,0.0724
12,CATGTTAC,0.0921
13,ACCACAAA,0.0758
14,AACTACGG,0.0714
15,AGATCAAA,0.0729
16,ACATGAAA,0.0847
17,GATAACTA,0.0766
18,CAAGACTA,0.0731
19,CTGTATTA,0.0783
20,GGGAGGTA,0.0765
21,AAGGCCAT,0.083
22,ATACTGGG,0.0746
23,CTTTTATC,0.0743
24,GCGGTCCA,0.0728
25,ATGGCCAT,0.0853

row,Sequence,binding signal (normalized occupancy)
1,GAAAGATC,0.0746
2,AAGGCGAC,0.0723
3,TAACCGTA,0.0779
4,ACTTGGTC,0.0713
5,CCCAAGCC,0.073
6,AATCAAGG,0.0756
7,ACGCAAAT,0.0748
8,ACACCACC,0.086
9,CCTATGCA,0.0852
10,CTCGACCA,0.0708
11,TCCAAAAA,0.0776
12,CCCGCGCG,0.0753
13,TAAGTAGA,0.0722
14,AGATAACG,0.0827
15,CTTGAACC,0.0766
16,CGCAACGA,0.0716
17,ACTTAAAC,0.0743
18,GCATCTGA,0.0776
19,AGCCCTAC,0.0714
20,CGCGTTAC,0.0854
21,CCCGCTAG,0.069
22,TAAAGGTA,0.0734
23,CGACAGGA,0.0749
24,ACCTCCGT,0.0689
25,TTCTTCAA,0.071

row,Sequence,binding signal (normalized occupancy)
1,ACGAGAGC,0.0714
2,GGAAGAAA,0.0704
3,GCGGTCCC,0.0662
4,AGCGCCCC,0.0711
5,CTTTAGCA,0.0732
6,AGTTTTAA,0.0717
7,GCGCCTCA,0.0681
8,CTCTTACA,0.0785
9,GTCTCTCA,0.0721
10,CCTTCATA,0.0746
11,GTAATGCA,0.0819
12,AGTAGCCC,0.0736
13,TACCACCA,0.0811
14,ACAATCCA,0.0737
15,GTGCTCTA,0.078
16,GACGACCC,0.0731
17,CCTCAATA,0.0821
18,CTATGAGA,0.0748
19,CGGCCAAA,0.0678
20,AACAGATT,0.0721
21,AACTTCCT,0.0757
22,AGAATTAC,0.076
23,CCCCGATC,0.0735
24,AGGACAGC,0.0734
25,ATCAGACG,0.0719

row,Sequence,binding signal (normalized occupancy)
1,CTAAGCCC,0.0716
2,ACGCCCCA,0.0761
3,CGCGGTTA,0.0774
4,AGAAAAGA,0.0759
5,CTACCCAG,0.0778
6,CAGCATCC,0.0746
7,CTTGGAAA,0.073
8,CGATTTAA,0.071
9,ACATGCAA,0.0826
10,CCAATCCA,0.071
11,CCTTAGCG,0.0683
12,AACAACAC,0.0845
13,ACGTGAAC,0.0842
14,GCAATCTA,0.0722
15,CACCATCG,0.0762
16,AGGAGACC,0.0785
17,ATACGAAA,0.0771
18,AACCCCGA,0.0806
19,GCCGGTCA,0.0714
20,CCGCGTCG,0.0731
21,CAGTGTAA,0.073
22,ACTAAAAC,0.0757
23,ACCTATCA,0.0809
24,ACTATTCC,0.078
25,ATATAATG,0.0845

row,Sequence,binding signal (normalized occupancy)
1,GCAGCAAA,0.0697
2,ACCCTTAC,0.0789
3,ACAAGGCA,0.0809
4,CATGCATC,0.0997
5,CTGGCTTC,0.0686
6,AACCACGT,0.123
7,AGGTTGCC,0.0768
8,AAATCGAA,0.0795
9,ACCCATAA,0.0823
10,AGGTCCTG,0.0728
11,GTTGCATA,0.0786
12,CAAATGCG,0.0791
13,AGAGGGCT,0.0677
14,AAGAATGT,0.0745
15,CATCCTGG,0.0785
16,GGAGGTTA,0.0765
17,TGAGCACA,0.0887
18,AAAGCACT,0.0757
19,CTGCGGGA,0.0645
20,AGCACTTC,0.0743
21,CCCCCTCC,0.0782
22,CATGCGAC,0.109
23,AAAAATCC,0.0734
24,TGAGGTAA,0.0764
25,GAGGGCCA,0.0686

row,Sequence,binding signal (normalized occupancy)
1,ATGCAATG,0.08
2,TAACGCGA,0.0699
3,GGAAACCA,0.0727
4,CTGAAAAA,0.0723
5,ACGTTGTC,0.0927
6,GCAAAACA,0.0735
7,CATGAGGG,0.109
8,CTCAATTA,0.0702
9,ATCAGACA,0.0792
10,CCGGTATA,0.0795
11,CGCATCGC,0.0705
12,AGGCCCCA,0.0721
13,GCTGATGA,0.0748
14,ATGTCGTG,0.0811
15,AAGCGGCG,0.0653
16,CAAAGGGA,0.0728
17,AAGAAAGT,0.0686
18,ACAAGATG,0.0779
19,CCGAGCGG,0.0693
20,ACACGCCA,0.0895
21,ATGCGAAG,0.079
22,AAGCAGTC,0.075
23,GTCACGCA,0.0927
24,AATCCTAA,0.077
25,CCAGCTAA,0.0694

row,Sequence,binding signal (normalized occupancy)
1,AGCGAAAA,0.0646
2,ACCTCAAA,0.0749
3,TCTTCCCA,0.0768
4,AGGCTTCC,0.0708
5,AGTTGAGC,0.0748
6,CTGTTTCA,0.0741
7,ATTAAGGA,0.0744
8,CCGCCCTC,0.0714
9,ATTGGTCA,0.0779
10,AAGTATAA,0.0823
11,ATGGGTGC,0.0876
12,ATGTGTAG,0.0906
13,AAGGTACC,0.0691
14,AACTCTCC,0.0732
15,CCCCTAAC,0.0774
16,CGCCAATA,0.0801
17,AGTACTAG,0.0705
18,CTGTTATA,0.0805
19,AAGGCCCG,0.0664
20,AGGTTTTC,0.0736
21,TGTATTAA,0.0758
22,ATCTGATG,0.0779
